# PubChem BioAssay (Tox21)
# Values joined by “and” are separate entries in the source; they are usually repeats but may differ in a detail not shown here. Equal entries are not always repeated. Inconclusive results, whose numbers are uncertain, are shown with a selection of clear calls. For some of these results: Where the call is inconclusive, the potency comes from a doubtful curve fit. Active and inactive are the calls of the source. Unless noted, calls come from the whole dose curve; as a rule, active = well fitted curve in the direction sought with a large enough effect in the repeat runs; inconclusive = weak or mixed curves; inactive = no such curve, though single readings can be large; an effect the other way counts as inactive or inconclusive.
# Assays:
# [1] = qHTS assay for small molecule agonists of the p53 signaling pathway (AID 651631; calls by dose curve; note: nearly all actives have a fitted effect of over 15% in size; for activation: % is set by controls: 0 for no effect and ±100 for the full control effect); conditions: HCT-116 p53RE-bla reporter, beta-lactamase FRET ratio, 16 h; activation: at 73.3 µM (top of the series) unless noted
# Outline: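 Quantitative high-throughput format: 4,000 p53RE-bla HCT-116 cells/well, 5 h pre-incubation, 16 h compound exposure at 37 °C, 2 h room-temperature substrate step, fluorescence intensity measured.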
# [2] = qHTS assay for small molecules that induce genotoxicity in human embryonic kidney cells expressing luciferase-tagged ATAD5 (AID 651632); conditions: HEK293T ATAD5-luciferase induction, 16 h; series mostly up to 83.3 µM; note: nearly all actives have a fitted effect of over 15% in size
# Outline: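 Increased luciferase signal from ATAD5-tagged reporter cells indicates DNA-damage-driven ATAD5 induction. HEK293T cells are treated for 16 hr at 37C before detection with Amplite.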
# [3] = qHTS assay for small molecule disruptors of the mitochondrial membrane potential - cell viability (AID 720634; calls by dose curve; note: nearly all actives have a fitted effect of over 20% in size); conditions: HepG2 viability, ATP luminescence (CellTiter-Glo), 1 h; series mostly up to 83.2 µM
# Outline: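 After overnight attachment at 37 C, HepG2 cells received compound or DMSO vehicle for 1 hr. Viability is then taken from ATP-driven luminescence following a 30 min room-temperature CellTiter-Glo step.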
# [4] = qHTS assay for small molecule disruptors of the mitochondrial membrane potential (AID 720635); conditions: HepG2 mitochondrial membrane potential, Mito-MPS dye ratio; ratio activity, negative = MMP loss: at 83.2 µM (top of the series) unless noted
# Outline: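 HepG2 cells (2,000/well) attached overnight at 37C, then took compound for 1 hr at 37C, 5% CO2. Mito-MPS dye was added for 30 min; fluorescence was read at 490/535 nm (monomers) and 540/590 nm (aggregates).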
# [5] = biological target: Glucocorticoid receptor (Homo sapiens) (UniProt P04150); experiment: qHTS assay to identify small molecule agonists of the glucocorticoid receptor (GR) signaling pathway (AID 720691; active = well fitted activation curve with a large enough effect in the signal ratio in the repeat runs, not every such curve was filed as active; inconclusive = weak or mixed curves, or effect the other way; inactive = no such curve, though single readings can be large or run the other way; the % refers to the signal ratio; for activation: % is set by controls: 0 for no effect and ±100 for the full control effect); conditions: GR-bla HeLa, beta-lactamase reporter ratio, 18 h; activation: at 62.4 µM (top of the series) unless noted
# UniProt P04150, sequence (P04150 whole entry, looked up): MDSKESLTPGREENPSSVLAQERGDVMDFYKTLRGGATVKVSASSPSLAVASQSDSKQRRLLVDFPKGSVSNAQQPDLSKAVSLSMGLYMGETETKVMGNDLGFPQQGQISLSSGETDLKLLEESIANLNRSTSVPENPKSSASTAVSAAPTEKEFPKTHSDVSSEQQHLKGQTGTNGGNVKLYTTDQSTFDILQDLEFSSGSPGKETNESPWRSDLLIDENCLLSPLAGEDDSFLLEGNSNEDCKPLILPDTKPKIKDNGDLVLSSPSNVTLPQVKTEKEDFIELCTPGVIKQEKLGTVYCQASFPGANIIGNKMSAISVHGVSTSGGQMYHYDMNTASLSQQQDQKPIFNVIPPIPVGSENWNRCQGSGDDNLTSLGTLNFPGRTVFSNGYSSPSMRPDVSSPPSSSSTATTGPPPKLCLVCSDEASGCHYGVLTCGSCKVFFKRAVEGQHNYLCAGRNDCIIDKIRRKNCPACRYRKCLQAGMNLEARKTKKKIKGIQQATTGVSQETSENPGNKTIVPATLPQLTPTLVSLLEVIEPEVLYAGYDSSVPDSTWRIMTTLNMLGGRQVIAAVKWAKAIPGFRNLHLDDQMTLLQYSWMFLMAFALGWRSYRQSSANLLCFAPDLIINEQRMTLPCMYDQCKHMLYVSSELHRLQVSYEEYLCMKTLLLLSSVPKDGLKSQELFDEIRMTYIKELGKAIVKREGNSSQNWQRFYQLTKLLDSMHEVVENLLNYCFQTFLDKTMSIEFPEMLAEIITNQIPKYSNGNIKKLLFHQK
# Outline: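 Agonist mode in a HeLa line carrying a GRE-controlled beta-lactamase reporter. Compounds act for 18 h at 37 C before a 2 h room-temperature FRET substrate step and fluorescence reading.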
# [6] = biological target: Glucocorticoid receptor (Homo sapiens) (UniProt P04150); experiment: qHTS assay to identify small molecule antagonists of the glucocorticoid receptor (GR) signaling pathway (AID 720692; active = well fitted inhibition curve with a large enough effect in the signal ratio in the repeat runs, not every such curve was filed as active; inconclusive = weak or mixed curves, or effect the other way; inactive = no such curve, though single readings can be large or run the other way; the % refers to the signal ratio; for activity change, negative = inhibition: % is set by controls: 0 for no effect and ±100 for the full control effect); conditions: GR-bla HeLa, beta-lactamase FRET ratio, dexamethasone-stimulated, 18 h; activity change, negative = inhibition: at 58.5 µM (top of the series) unless noted
# Outline: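 Cells plated, rested 4 h at 37 C/5% CO2; compounds in DMSO pin-transferred; dexamethasone added to 5 nM final; 18 h at 37 C; B/G FRET substrate added, 2 h room temperature; fluorescence measured.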
# [7] = qHTS assay for identifying genotoxic compounds that show differential cytotoxicity against isogenic chicken DT40 cell lines with known DNA damage response pathways - Rev3 mutant cell line (AID 743014); conditions: chicken DT40 Rev3-/- viability, CellTiter-Glo, 40 h; activity, negative = cytotoxicity: at 68.4 µM (top of the series); note: nearly all actives have a fitted effect of over 55% in size
# [8] = qHTS assay to identify small molecule antagonists of the androgen receptor (AR) signaling pathway - cell viability counter screen (AID 743033; note: nearly all actives have a fitted effect of over 45% in size); conditions: AR-bla HEK293 viability, CellTiter-Glo luminescence, 16 h; activity change, negative = cytotoxicity: at 58.5 µM (top of the series)
# [9] = qHTS assay to identify small molecule antagonists of the glucocorticoid receptor (GR) signaling pathway - cell viability counter screen (AID 720693); conditions: GR-bla HeLa viability, CellTiter-Glo luminescence, 18 h, with 5 nM dexamethasone present; viability change, negative = cytotoxic: at 58.5 µM (top of the series) unless noted; note: nearly all actives have a fitted effect of over 55% in size
# [10] = qHTS assay for small molecule agonists of the p53 signaling pathway - cell viability (AID 651633; calls by dose curve; note: nearly all actives have a fitted effect of over 30% in size); conditions: p53RE-bla HCT-116 viability, ATP luminescence, 16 h; series mostly up to 83.3 µM
# Outline: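 p53RE-bla cells, seeded at 4,000 per well and rested 5 h at 37 C/5% CO2, received compounds in DMSO for 16 h at 37 C. CellTiter-Glo was then added, and luminescence was read after 30 min at room temperature to gauge cytotoxicity.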
# [11] = qHTS assay for identifying genotoxic compounds that show differential cytotoxicity against isogenic chicken DT40 cell lines with known DNA damage response pathways - wild type cell line (AID 743012); conditions: DT40 wild type chicken cells viability, CellTiter-Glo, 40 h; activity change, negative = cytotoxicity: at 68.4 µM (top of the series) unless noted; note: nearly all actives have a fitted effect of over 60% in size
# Outline: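 Cells (DT40 wild type, 300/well) are treated with DMSO-dissolved compounds after a ~0.5 h pre-incubation and kept 40 h at 37 C/5% CO2. Viability is then measured by CellTiter-Glo luminescence following 30 min at room temperature.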
# [12] = qHTS assay for identifying genotoxic compounds that show differential cytotoxicity against isogenic chicken DT40 cell lines with known DNA damage response pathways - Rad54/Ku70 mutant cell line (AID 743015); conditions: DT40 Rad54/Ku70 mutant viability, CellTiter-Glo, 40 h; activity change, negative = cytotoxicity: at 66.8 µM (top of the series); note: nearly all actives have a fitted effect of over 60% in size
# [13] = qHTS assay for small molecules that induce genotoxicity in human embryonic kidney cells expressing luciferase-tagged ATAD5 - cell viability (AID 651634; calls by dose curve; note: nearly all actives have a fitted effect of over 25% in size; for activity, negative = cytotoxicity: % is set by controls: 0 for no effect and ±100 for the full control effect); conditions: HEK293T ATAD5-luc cells viability, CellTiter-Fluor, 15.5 h; series mostly up to 83.3 µM
# Outline: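 Cytotoxicity counterscreen in HEK293T cells bearing an ATAD5-luciferase reporter: live-cell protease activity measured by CellTiter-Fluor fluorescence after 15.5 hr compound exposure.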
# [14] = qHTS assay to test for compound auto fluorescence at 460 nm (blue) in HepG2 cell free culture (AID 720685); conditions: Cell-free culture medium, blue autofluorescence 405/460 nm; series mostly up to 91.3 µM
# Outline: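 Compound (23 nL) or DMSO pinned into cell-free MEM with 10% FBS; blue fluorescence read at 405/460 nm excitation/emission, expressed as auto-fluorescence equivalency to triamterene.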
# [15] = qHTS assay to test for compound auto fluorescence at 460 nm (blue) in HepG2 cells (AID 720687); conditions: autofluorescence 405/460 nm, 1 h; series mostly up to 91.3 µM
# Outline: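 Cells (2,000/well in MEM with 10% FBS) attached overnight at 37 C, then were exposed to compound or DMSO for 1 hr at 37 C, 5% CO2. Fluorescence read at Ex/Em 405/460 nm, expressed as triamterene-equivalent signal.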
# Potency is the fitted concentration of half-maximal effect; tags give direction and shape of the fitted curve or compound fluorescence and quenching.
compound,measurement,setting,value
[F][Sn]([c]1ccccc1)([c]1ccccc1)[c]1ccccc1,Potency,[1],"inconclusive: 4.33 µM [falling, full curve]"
same,Potency,[2],"inconclusive: 0.137 µM [activator, partial curve]"
same,Potency,[3],active: 19.3 µM
same,Potency,[4],active: 0.273 µM
same,Potency,[5],"inconclusive: 9.77 µM [cytotoxic, full curve]"
same,Potency,[6],"inconclusive: 21.9 µM [cytotoxic, partial curve]"
same,Potency,[7],active: 0.433 µM
same,Potency,[8],active: 1.23 µM
N#Cc1c(Cl)c(Cl)c(Cl)c(C#N)c1Cl,Potency,[1],active: 21.3 µM and active: 30.6 µM
same,Potency,[2],active: 424 nM and active: 864 nM
same,Potency,[3],active: 19 µM and active: 21.7 µM
same,Potency,[4],active: 3.37 µM and active: 27.3 µM
same,Potency,[5],"inconclusive: 9.59 µM [cytotoxic, full curve] and inconclusive: 4.36 µM [cytotoxic, full curve]"
same,Potency,[6],"inconclusive: 21.5 µM [cytotoxic] and inconclusive: 19.5 µM [cytotoxic, partial curve]"
same,Potency,[9],active: 21.5 µM and active: 21.9 µM
same,Potency,[8],active: 2.41 µM and active: 1.55 µM
[CH3][Hg][Cl],Potency,[1],active: 30.5 µM
same,Potency,[2],active: 4.84 µM
same,Potency,[10],active: 24.3 µM
same,Potency,[3],active: 27.2 µM
same,Potency,[4],active: 19.3 µM
same,Potency,[5],"inconclusive: 8.69 µM [fluorescent, partial curve, poor fit]"
same,Potency,[6],"inconclusive: 43.5 µM [cytotoxic, partial curve]"
same,Potency,[9],active: 19.5 µM
same,Potency,[11],"inconclusive: 68.4 µM [cytotoxic, single point]"
same,Potency,[7],"inconclusive: 68.4 µM [cytotoxic, single point]"
same,Potency,[12],active: 48.4 µM
Oc1ccc(-c2ccccc2)cc1,Potency,[1],"inconclusive: 75.9 µM [falling, single point] and inconclusive: 61.1 µM [falling, single point]"
same,Potency,[2],"inconclusive: 60.3 µM [activator, partial curve, poor fit]"
same,Potency,[13],inactive
same,activation,[5],inconclusive: -10.9%
same,Potency,[6],"inconclusive: 7.76 µM [inhibitor, partial curve, poor fit]"
same,"activity change, negative = inhibition",[6],inconclusive: -18.9%
same,Potency,[11],inconclusive: 60.3 µM [cytotoxic]
same,Potency,[7],"active: 60.3 µM and inconclusive: 68.6 µM [cytotoxic, single point]"
same,Potency,[12],"inconclusive: 67.7 µM [cytotoxic, single point]"
C[C@H](CN1CCOCC1)C(C(=O)N1CCCC1)(c1ccccc1)c1ccccc1,Potency,[1],inactive
same,Potency,[2],inactive
same,Potency,[13],inactive
same,"ratio activity, negative = MMP loss",[4],inconclusive: -14.7% [at 95.3 µM]
same,Potency,[7],active: 37.3 µM
CN1C(=O)[C@@H](NC(=O)c2cc3ccccc3[nH]2)N=C(c2ccccc2)c2ccccc21,Potency,[1],"inconclusive: 23.7 µM [falling, partial curve]"
same,Potency,[2],active: 11.9 µM
same,Potency,[5],"inconclusive: 19 µM [falling, partial curve]"
same,Potency,[7],"inconclusive: 16.8 µM [cytotoxic, full curve]"
c1csc(-c2ccc(-c3cccs3)s2)c1,Potency,[1],active: 34.4 µM
same,Potency,[2],"inconclusive: 30.6 µM [activator, partial curve, poor fit]"
same,Potency,[3],"inconclusive: 54.5 µM [cytotoxic, partial curve]"
same,Potency,[14],"inconclusive: 39.8 µM [fluorescent, partial curve, poor fit]"
same,Potency,[15],"inconclusive: 44.7 µM [fluorescent, partial curve, poor fit]"
same,Potency,[5],active: 49 µM
same,Potency,[6],inconclusive: 54.9 µM [activator]
same,Potency,[7],"inconclusive: 68.6 µM [cytotoxic, single point]"
Cn1c(CCCC(=O)O)nc2cc(N(CCCl)CCCl)ccc21,Potency,[1],active: 26.6 µM
same,Potency,[2],inactive
same,Potency,[6],inactive
same,Potency,[12],"inconclusive: 33.5 µM [cytotoxic, single point]"
N#CCCC(Br)(C#N)CBr (centres undefined),Potency,[1],inconclusive: 68.6 µM [activator]
same,Potency,[2],"inconclusive: 68.6 µM [activator, single point]"
same,Potency,[13],"inconclusive: 68.6 µM [falling, single point]"
same,Potency,[3],"inconclusive: 68.6 µM [cytotoxic, single point]"
same,Potency,[4],active: 61.1 µM
same,Potency,[6],inconclusive: 61.6 µM [inhibitor]
same,Potency,[9],"inconclusive: 61.6 µM [cytotoxic, single point]"
